Each structure is given as a SMILES string. Among all 150,000 compounds or so, about 540 (0.36%) showed an effect of 50% or more. This is one part of the list.

The assay concerns Plasmodium falciparum. Briefly: Primary screen in NF54 nanoGlo assay, in single point, at 2uM, 72h; a lower Z score goes with more inhibition. Type of assay: functional, Erythrocyte. The settings on record: timepoint 72 hour.
Take `O=C(Nc1ccc(Br)c(C2CC2)n1)N1C2CCC1COC2`: the % Inhibition (as a rule, the change of the read-out against control, counted positive when it falls) is given as -9% and the Z score was 1.64.
The like results for `Cc1cc(CN[C@@H](C)CNS(=O)(=O)C2CC2)ccn1` were, in that order, -2% and 0.3.
For the molecule `COc1ccc(-c2csc3c2c(=O)n(C)c(=O)n3CC(=O)N2CCOCC2)cc1`, the “% Inhibition” value was 2% and the Z score is -0.29.
Turning to `CN(C)C(=O)CCOC(=O)c1ccccc1Cl`, the “% Inhibition” value amounted to 7% and the Z score is listed as -1.02.
The matching figures for `COc1ccc(Cn2cc([C@H](CC(=O)N3CCCC3)c3ccc(OCc4ccccc4)cc3)c3ccccc32)cc1`: -9% and 1.48.
With `Cc1c(CNc2cncc(F)c2)cnn1C`, the “% Inhibition” value is listed as -10% and the Z score was determined as 1.44.
Regarding `Cc1ccc(-c2nccn2[C@@H](C)C(N)=O)o1`, the “% Inhibition” value is listed as 13% and the Z score was -1.72.
With `C1CCCC(CN[C@H]2CCOC2)(N2CCOCC2)CC1`, the “% Inhibition” value was determined as 2% and the Z score is listed as -0.2.
The matching figures for `COCCNCCOc1ccccc1F`: -6% and 0.5.
The matching figures for `CC(C)CN(C)[C@@H](C(=O)O)c1cccc(C(=O)N2CCC(C)CC2)c1`: 5% and -0.48.
The matching figures for `CCCN1C[C@@H](NC(=O)c2cnc(O)c(Cl)c2)CC1=O`: 10% and -1.36.
Take `C[C@H](NCc1ccc(C2CC2)cc1F)c1ccccn1`: the “% Inhibition” value is -9% and the Z score is listed as 1.24.
With `CN(CC(=O)Nc1nncs1)S(=O)(=O)c1ccc(Br)cc1`, the “% Inhibition” value is reported as -46% and the Z score is 5.38.
The like results for `CC[C@H](C)[C@@H]1NC(=O)N(c2cccc3ccccc23)C1=O` were, in that order, -9% and 1.77.
Take `CC1CCN(CCN(C)C(=O)c2cc3ccccc3n2C)CC1`: the “% Inhibition” value is reported as -4% and the Z score was 0.82.
On to `CN(C)c1ccc(CNC(=O)c2ccc3c(=O)n4c(nc3c2)CCCCCC4)cc1`, for which the “% Inhibition” value came out at 0% and the Z score stood at 0.06.
Turning to `c1ccc(OCCNCCOc2ccccc2)cc1`, the “% Inhibition” value came to 4% and the Z score is listed as -0.46.
Turning to `COc1ccc(C2CCCN2C(=O)CC(NC(N)=O)c2ccccc2)cc1OC` (centres undefined), the “% Inhibition” value was -3% and the Z score turned out to be 0.42.
In the case of `Cn1cnnc1CCC(=O)N1CCC[C@H](c2nc3ccccc3s2)C1`, the “% Inhibition” value stood at 4% and the Z score is listed as -0.82.
On to `Cc1ccsc1CNc1nnnn1C`, for which the “% Inhibition” value is listed as -10% and the Z score is recorded as 1.53.
The matching figures for `O=C(NCC1CC1)NC(C1CC1)C1CC1`: -14% and 2.11.
The like results for `CCn1c([C@H]2CCCN(c3nc(C)cnc3C)C2)nn(CCN(C)C)c1=O` were, in that order, 2% and -0.3.
In the case of `COCCOCc1nc(C2CCN(C(=O)Nc3ccccc3)CC2)no1`, the “% Inhibition” value is 1% and the Z score was -0.07.
The matching figures for `CCc1csc(N2CCc3c(F)ccc(C(=O)O)c3C2)n1`: 2% and -0.21.
The like results for `Cc1ccc(-c2nc(-c3cccc4ccccc34)[nH]c2-c2ccccc2)cc1` were, in that order, 2% and -0.19.
The matching figures for `CC(C)Cc1nc(NC(=O)CCNc2ncccn2)n[nH]1`: -17% and 2.17.
As for `CCCc1cc(C(=O)Nc2cccnc2)cs1`, the “% Inhibition” value is -20% and the Z score is on record as 1.81.
Turning to `FC(F)(F)c1nc([C@H]2[C@@H]3CCCC[C@@H]32)c2n1CCNC2`, the “% Inhibition” value is given as 1% and the Z score was -0.16.
For the molecule `COc1ccc(NC(=O)NC(=O)COC(=O)c2cnn(-c3ccccn3)c2C(C)C)cc1`, the “% Inhibition” value was determined as 0% and the Z score is on record as -0.03.
The matching figures for `CCOC(=O)CC1(S(=O)(=O)c2ccc(F)cc2)CCN(Cc2cnn(C)c2)CC1`: -9% and 1.75.
Regarding `O=C(O)c1ccc(Cl)c(NC(=O)C(F)(F)F)c1`, the “% Inhibition” value is recorded as -4% and the Z score was determined as 0.48.
The like results for `CN(C(=O)C[C@@H]1C[C@H]1c1ccccc1)c1ccccc1S(C)(=O)=O` were, in that order, -1% and 0.15.
For the molecule `C[C@](O)(CNC(=O)c1cccnc1)C1CCCCC1`, the “% Inhibition” value is listed as -6% and the Z score is 0.64.
The like results for `CC1CN(CC(=O)Nc2nc3ccccc3s2)CC(C)O1` (centres undefined) were, in that order, -4% and 0.77.
Take `Cc1nc2oc(-c3ccccc3)nc2cc1NC(=O)Nc1cccs1`: the “% Inhibition” value is on record as -20% and the Z score is given as 2.59.
Turning to `Cc1nc(CCN[C@H](c2ccc(Br)cc2)c2ccco2)cs1`, the “% Inhibition” value is reported as 0% and the Z score is on record as -0.03.
The like results for `O=C(NC[C@@H]1C[C@H]1c1cccnc1)c1cccnc1OCC(F)F` were, in that order, 1% and -0.13.
The like results for `CCN(CC)C(=O)NC[C@H]1CN(CC(C)C)C(=O)CO1` were, in that order, 4% and -0.54.
Consider `O=C(NC1CCCC1O)C1CC2CCCCC2N1c1ncccn1` (centres undefined), for which the “% Inhibition” value is on record as -10% and the Z score was 0.99.
The matching figures for `CC(C)c1nc(CN2C[C@@H](C)O[C@@H](C)C2)co1`: 4% and -0.5.
The like results for `O=C(C[C@@H]1CCCC[C@H]1O)N1CC(CO)C1` were, in that order, 3% and -0.43.
Turning to `O=C1CCc2c(OC34CCCN(CC3)C4)cccc21` (centres undefined), the “% Inhibition” value is listed as -5% and the Z score came to 0.73.
The matching figures for `O=C(CN[C@H](c1ccccc1)c1cccs1)Nc1ccc(N2CCCCC2)cc1`: 4% and -0.47.
The matching figures for `Cc1cc(NC(=O)N2CCN(Cc3ccc4nccnc4c3)CC2)ccc1Br`: -24% and 2.23.
`CC(=O)NC[C@H]1CCCN(C(=O)c2cc(C)ccc2-n2cnnc2)C1`: the “% Inhibition” value was -2% and the Z score was found to be 0.32.
The matching figures for `Cc1nc([C@@H]2CCCN2c2ncc(Cl)cc2F)no1`: -5% and 0.62.
As for `CC(C)(C)c1n[nH]c([C@@H]2CN(Cc3nnnn3C3CC3)CCO2)n1`, the “% Inhibition” value is -20% and the Z score is recorded as 2.05.
The like results for `O=C1N[C@H](CO)C(=O)N2CCN(S(=O)(=O)c3ccc4ccccc4c3)C[C@H]12` were, in that order, -6% and 0.72.
The like results for `CCCn1ncc(C(=O)N2C[C@@H](F)C[C@H]2CNC(=O)c2cc(C)oc2C)c1C` were, in that order, -5% and 0.64.
Regarding `COc1ccccc1CNCCc1nc(C)c(C)s1`, the “% Inhibition” value is listed as -15% and the Z score turned out to be 2.22.
The like results for `COCCNC(=O)C(=O)NC[C@H](O)c1ccc(C)o1` were, in that order, -20% and 3.43.
The like results for `CCC(C)C(O)CNC(=O)c1ccc(C#N)cn1` (centres undefined) were, in that order, -11% and 1.31.
Regarding `O=C(C(c1ccccc1)c1ccccc1)N1CC(c2ccccc2)C1`, the “% Inhibition” value was -3% and the Z score amounted to 0.4.
For `Cc1cnn(CCC(=O)N[C@H]2COCC[C@@H]2OCc2ccccn2)c1`, the “% Inhibition” value is -3% and the Z score is 0.56.
Regarding `CCc1ccc2ncn(C3(C)CCC3)c(=O)c2c1`, the “% Inhibition” value is -8% and the Z score is reported as 0.91.
The matching figures for `Cc1ccc2nc(CNC(=O)c3cnc(C4CC4)nc3O)cn2c1`: -4% and 0.55.
The like results for `O=C(Cn1c(-c2ccccc2)nn(-c2ccc(Cl)cc2)c1=O)NC[C@H](O)CO` were, in that order, -10% and 1.45.
Turning to `C[C@@H]1CN(C(=O)CCn2nnc3ccccc32)C[C@]1(C)O`, the “% Inhibition” value is -8% and the Z score turned out to be 1.45.
Regarding `CN(C)C(=O)CO[C@H]1COCC[C@@H]1NC(=O)c1ccc2c(c1)OCCO2`, the “% Inhibition” value turned out to be 1% and the Z score is -0.07.
The matching figures for `NC(=O)Cn1ccc(-c2cccc(-c3ncccc3Cl)c2)n1`: -10% and 0.91.
For `Nc1ccc(C(Cc2ccnc3ccccc23)Cc2ccnc3ccccc23)cc1`, the “% Inhibition” value was -3% and the Z score worked out at 0.39.
For `CC[C@@H](C)[C@@H](CO)NC(=O)C[C@@H]1NC(=O)N(CCc2ccc(OC)c(OC)c2)C1O` (some centres undefined), the “% Inhibition” value is -6% and the Z score was found to be 0.83.
As to `CCCNc1ncc(CN2C[C@@H](CC(=O)O)[C@@H](c3c[nH]nn3)C2)cn1`, the “% Inhibition” value came to 4% and the Z score is given as -0.55.
The like results for `Fc1ccc(-c2noc(-c3cnc([C@@H]4CCCO4)s3)n2)c(Cl)c1` were, in that order, 3% and -0.3.
The matching figures for `CC(=O)c1nn(-c2ccc(OC(F)(F)F)cc2)nc1Nc1ccccc1N1CCCCC1`: -10% and 1.77.
As for `O[C@H]1Cc2ccccc2[C@H]1Nc1cncc(Br)c1`, the “% Inhibition” value is given as -12% and the Z score was determined as 1.71.
The like results for `CN1CC(c2nc(-c3ccncc3)no2)C(C(F)(F)F)C1` (centres undefined) were, in that order, -15% and 2.63.
For the molecule `Cc1cc(/C=C2\C=Cc3ccccc32)cc(C)c1N`, the “% Inhibition” value is -18% and the Z score amounted to 2.08.
The like results for `CCC[C@H]1CN(C(=O)Cc2ccsc2)C[C@@H]1C(=O)O` were, in that order, -6% and 0.81.
The like results for `O=C1C[C@@]2(CCCN(C(=O)NCC3(c4cccc(F)c4F)CCCC3)C2)CN1` were, in that order, -14% and 1.87.
Turning to `Cc1nnc(N2CCO[C@H](c3noc(C(C)C)n3)C2)o1`, the “% Inhibition” value was -9% and the Z score was determined as 1.52.
As to `CCOc1ccc(NC(=O)Cn2cccc2-c2nnc(C)o2)cc1`, the “% Inhibition” value is listed as -2% and the Z score was 0.23.
The matching figures for `CC(C)C[C@@H](NC(=O)[C@H]1CC[C@H](C(C)C)CC1)C(=O)O`: -19% and 1.99.
The matching figures for `COC(=O)c1ccc(CNS(=O)(=O)N(C)[C@@H](C)C2CC2)cn1`: -9% and 1.82.
Regarding `CCc1ccc(C(=O)Cn2nc(-c3cccnc3)oc2=S)cc1`, the “% Inhibition” value is recorded as -45% and the Z score came out at 5.3.
`COCC(=O)N(C1CCOCC1)[C@H]1CCN(C(=O)CC2CCCCC2)C1`: the “% Inhibition” value turned out to be 35% and the Z score is listed as -3.98.
The like results for `O=C(O)c1cc(NC(=O)C2CCCCC2C(=O)N2CCCC2)ccc1Cl` (centres undefined) were, in that order, -5% and 0.43.
The matching figures for `Cc1nncn1CCNC(=O)c1cc(Br)cn1C`: 3% and -0.27.
The like results for `O=C(Nc1nc(C2CC2)cs1)[C@@H]1CCCN1C(=O)c1cccs1` were, in that order, -1% and 0.14.
Regarding `Cc1ccccc1NC(=O)N1CCC(n2cc(-c3ccc(F)cc3)nn2)CC1`, the “% Inhibition” value was -19% and the Z score is 1.79.
Regarding `CC1(C)CCN(C(=O)c2cc3c(s2)CCCC3)C1`, the “% Inhibition” value is -6% and the Z score worked out at 0.87.
`Cn1cc(CC(=O)NCc2cccc(Cl)c2)c2cccnc21`: the “% Inhibition” value is on record as -5% and the Z score turned out to be 0.9.
Turning to `Cc1cc(N(C)Cc2cnn(-c3ccccc3)c2)nc(C(C)C)n1`, the “% Inhibition” value is listed as -10% and the Z score is listed as 1.45.
`CC(C)CS(=O)(=O)CC(=O)N(CCC#N)c1ccccc1`: the “% Inhibition” value was -13% and the Z score is 1.4.
The like results for `CC1CCCC(C(=O)N(C)CCC2CCCCC2)C1` (centres undefined) were, in that order, 7% and -1.36.
The like results for `CN(C)Cc1cc(CC2(NCc3ccncc3)COC2)no1` were, in that order, -7% and 0.95.
Turning to `COc1cccc(-c2cn3c(-c4ccccc4)c(-c4ccccc4)nc3n2-c2ccc(O)cc2)c1`, the “% Inhibition” value turned out to be 5% and the Z score is listed as -0.59.

The values above are taken from ChEMBL document CHEMBL4888484, “Replenishing the malaria drug discovery pipeline: Screening and hit evaluation of the MMV Hit Generation Library 1 (HGL1) against asexual blood stage Plasmodium falciparum ,using a nano luciferase reporter read-out” (2022).
